Measured values as given in US20250263469A1 (HOSPITAL FOR SICK CHILDREN, published 2025).

Legend:
[1] = biological target: SARS-CoV-2 Spike on pseudotyped virus (PsV) (SARS-CoV-2); experiment: cell-based or functional assay
[2] = biological target: SARS-CoV-2 Spike on pseudotyped virus (PsV) (SARS-CoV-2); experiment: cell-based or functional assay; remark: listed apart in the source

B1: MB 120 (other)
chain 1: EIVMTQSPATLSVSPGERATLSCRASQSVSSRYLAWYQQKPGQAPRLLIYGASTRATGIPARFSGSGSGTEFTLTISSLQSEDFAVYYCQQYYTTPRTFGQGTRLEIKRTVAAPSVFIFPPSDEQLKSGTASVVCLLNNFYPREAKVQWKVDNALQSGNSQESVTEQDSKDSTYSLSSTLTLSKADYEKHKVYACEVTHQGLSSPVTKSFNRGECGGGGSGGGGSGGGGSGGGGSGGGGSGGGGSGGGGSGGGGSGGGGSGGGGSGGGGSGGGGSGGGGSGGGGSQVQLVQSGAEVKKPGASVKVSCKASGYTFTSYDINWVRQAPGQGLEWMGMIDPSGGSTSYAQKFQGRVTMTRDTSTSTVYMELSSLRSEDTAVYYCAKDFGGGTRYDYWYFDLWGRGTLVTVSSASTKGPSVFPLAPSSKSTSGGTAALGCLVKDYFPEPVTVSWNSGALTSGVHTFPAVLQSSGLYSLSSVVTVPSSSLGTQTYICNVNHKPSNTKVDKKVEPKSCGGGGSGGGGSGGGGSGGGGSGGGG[not shown - about 200 residues]
chain 2: [not shown - human IgG1 Fc]GGGGSGGGGSGGGGSGGGGSGGGGSGGGGSGGGGSGGGGSGGGGSGGGGSGGGGSGGGGSGGGGSGGGGS[not shown - human IgG1 Fc]GGGGSGGGGSGGGGSGGGGSGGGGSGGSSQIRQNYSTDVEAAVNSLVNLYLQASYTYLSLGFYFDRDDVALEGVSHFFRELAEEKREGYERLLKMQNQRGGRALFQDIKKPAEDEW
chain 3: EIVMTQSPATLSVSPGERATLSCRASQSVSSRYLAWYQQKPGQAPRLLIYGASTRATGIPARFSGSGSGTEFTLTISSLQSEDFAVYYCQQYYTTPRTFGQGTRLEIKRTVAAPSVFIFPPSDEQLKSGTASVVCLLNNFYPREAKVQWKVDNALQSGNSQESVTEQDSKDSTYSLSSTLTLSKADYEKHKVYACEVTHQGLSSPVTKSFNRGECGGGGSGGGGSGGGGSGGGGSGGGGSGGGGSGGGGSGGGGSGGGGSGGGGSGGGGSGGGGSGGGGSGGGGSQVQLVQSGAEVKKPGASVKVSCKASGYTFTSYDINWVRQAPGQGLEWMGMIDPSGGSTSYAQKFQGRVTMTRDTSTSTVYMELSSLRSEDTAVYYCAKDFGGGTRYDYWYFDLWGRGTLVTVSSASTKGPSVFPLAPSSKSTSGGTAALGCLVKDYFPEPVTVSWNSGALTSGVHTFPAVLQSSGLYSLSSVVTVPSSSLGTQTYICNVNHKPSNTKVDKKVEPKSCGGGGSGGGGSGGGGSGGGGSGGGGSGKTPDAMKAAMALEKKLNQALLDLHALGSARTDPHLCDFLETHFLDEEVKLIKKMGDHLTNLHRLGGPEAGLGEYLFERLTLRHD
- Median IC50, SARS-CoV-2 PsV neutralization [1]: 7.2 µg/mL
- IC50 SARS-CoV2 PsV, MB [2]: 7.2 µg/mL
